# Article PMC4336329 (PLoS ONE, 2015)
# About 14,000 (4.5%) of roughly 310,000 compounds showed an effect of 50% or more. Effects have a minus sign here. This is one part of the list.
# Target: human ether-à-go-go-related gene (hERG) potassium channel (human, UniProt Q12809)
# Assay: primary screen, population patch clamp on CHO cells stably expressing hERG
# 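Also: peak tail current of the secondary pulse compared with the same well before compound.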
# Sequence of human ether-à-go-go-related gene (hERG) potassium channel (Q12809 whole entry, looked up): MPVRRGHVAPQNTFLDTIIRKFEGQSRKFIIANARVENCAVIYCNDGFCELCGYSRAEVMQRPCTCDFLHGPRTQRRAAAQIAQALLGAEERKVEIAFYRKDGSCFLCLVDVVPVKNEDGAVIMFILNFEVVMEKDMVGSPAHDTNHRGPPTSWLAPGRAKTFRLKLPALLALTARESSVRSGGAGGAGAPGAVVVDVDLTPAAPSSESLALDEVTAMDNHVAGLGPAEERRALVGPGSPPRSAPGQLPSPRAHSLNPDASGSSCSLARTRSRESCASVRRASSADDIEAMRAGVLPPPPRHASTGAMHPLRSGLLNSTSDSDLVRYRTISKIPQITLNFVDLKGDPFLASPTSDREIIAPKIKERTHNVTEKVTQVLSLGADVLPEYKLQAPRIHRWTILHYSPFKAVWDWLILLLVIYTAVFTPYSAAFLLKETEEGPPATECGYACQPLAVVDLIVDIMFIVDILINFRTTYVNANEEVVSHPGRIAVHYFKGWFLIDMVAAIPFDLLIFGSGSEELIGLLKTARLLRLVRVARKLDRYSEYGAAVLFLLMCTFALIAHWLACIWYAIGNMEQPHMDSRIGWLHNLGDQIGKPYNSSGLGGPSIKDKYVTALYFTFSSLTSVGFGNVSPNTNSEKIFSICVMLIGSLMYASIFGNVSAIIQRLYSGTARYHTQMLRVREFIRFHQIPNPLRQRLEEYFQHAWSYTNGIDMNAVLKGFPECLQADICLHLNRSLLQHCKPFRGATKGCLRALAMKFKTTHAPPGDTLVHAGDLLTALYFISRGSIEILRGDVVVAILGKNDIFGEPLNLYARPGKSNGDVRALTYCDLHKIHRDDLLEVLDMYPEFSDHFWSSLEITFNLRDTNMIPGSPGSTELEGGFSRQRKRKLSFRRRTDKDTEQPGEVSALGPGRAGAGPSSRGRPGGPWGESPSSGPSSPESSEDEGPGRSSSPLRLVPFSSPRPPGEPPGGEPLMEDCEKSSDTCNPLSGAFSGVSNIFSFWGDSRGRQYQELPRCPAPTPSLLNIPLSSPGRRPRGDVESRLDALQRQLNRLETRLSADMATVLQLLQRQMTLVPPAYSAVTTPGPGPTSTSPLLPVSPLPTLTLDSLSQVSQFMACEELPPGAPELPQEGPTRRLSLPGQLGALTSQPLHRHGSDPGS
row,Compound,"hERG current change (%, negative = inhibition) at 10uM [%]"
1,Cc1coc2c1c(C)cc1oc(=O)c(CC(=O)N[C@@H](C)C(=O)O)c(C)c12,20.9
2,CCC(=Nc1ccc2c(c1)CCC2)c1c(O)n(-c2ccc(OC)cc2)c(=O)[nH]c1=O,-41.8
3,O=C(O)C1SCCN1S(=O)(=O)c1ccc2ccccc2c1 (stereo not shown),8.04
4,Cc1ccnn1CC(=O)N/N=C/c1cn[nH]c1-c1ccc(F)cc1,-4.37
5,COc1cc(/C=C/C(=O)c2ccc3c(c2)OCCO3)cc(Br)c1OCC(=O)N(C)C,-0.0898
6,Cc1cccc(OCc2nc(C#N)c(N3CCCC3)o2)c1,-29.5
7,COc1ccc(OCC(=O)Nc2sc3c(c2C(=O)NCC2CCCO2)CCC3)cc1 (stereo not shown),11.2
8,CCC1=NN2C(=N)/C(=C\c3ccc(OCCOc4ccccc4)c(OC)c3)C(=O)N=C2S1,8.67
9,COc1ccccc1OCCC(=O)Nc1cccc(S(=O)(=O)N2CCOCC2)c1,8.91
10,CN(C)N(Cc1ccccc1)C(=O)C(O)(c1ccccc1)c1ccccc1,11.7
11,O=[N+]([O-])c1ccc(Sc2nccn2Cc2ccccc2)c([N+](=O)[O-])c1,-57.9
12,COc1ccc2[nH]c(=O)c(CN(CC3CCCO3)S(=O)(=O)c3ccccc3)cc2c1 (stereo not shown),16.7
13,COc1cc(OC)cc(-c2nnc(SCC(=O)N3CCCCC3)o2)c1,-11.2
14,Cn1c(SCc2ccccc2Cl)nc(C(F)(F)F)cc1=O,1.65
15,Cc1cc(-n2c(C)cc(C(=O)COc3cc(F)ccc3[N+](=O)[O-])c2C)no1,4.39
16,COc1ccc(CCn2nnc(-c3ccc(NC(C)=O)c(Cl)c3)n2)cc1,17.1
17,CCC1(CC)C(=O)C2=C3C1[C@H](C(=O)OC)CC(C(=O)OC)C[C@H]3[C@H]1C(=O)N(c3ccccc3)C(=O)[C@H]1[C@H]2C (stereo partly shown),2.34
18,CCOc1cc(S(=O)(=O)NCc2cccs2)ccc1Cl,0.116
19,CC[C@H](C)[C@H](NS(=O)(=O)c1ccc(C)cc1)C(=O)N1CCC(C(=O)N[C@H](C(=O)O)C(C)C)CC1,-6.62
20,Cc1ccc(-n2cc(CNC(C)Cc3cnccn3)c(-c3cccc(C)c3)n2)cc1 (stereo not shown),-73.8
21,COC(=O)C1=C(c2ccc(S(C)(=O)=O)cc2)C[C@@H]2CC[C@H]1N2C(=O)NC1CC1,17
22,O=C(Nc1ccc(N2CCN(C(=O)c3ccccc3)CC2)c(Cl)c1)c1ccco1,-29.5

row,Compound,"hERG current change (%, negative = inhibition) at 10uM [%]"
1,Cc1ccoc1C(=O)N1CCCCC1C(=O)O (stereo not shown),18.2
2,CCN(CC)C(=O)c1sc(NC(=O)c2c(OC)cccc2OC)c(C#N)c1C,19.1
3,Cc1ccc(S(=O)(=O)NC(C(=O)N2CCOCCOCCOCCOCC2)c2ccccc2)cc1 (stereo not shown),-7.3
4,CCOC(=O)c1cnn(-c2ncnc3c2cnn3C)c1N,2.99
5,CCOC(=O)/C(=N\Nc1cc(Cl)ccc1Cl)N1CCN(CC)CC1,-17.8
6,O=C(Nc1ccc(S(=O)(=O)N2CCOCC2)cc1)c1cc(-c2cc(Cl)ccc2O)n[nH]1,4.71
7,O=c1[nH]nnc2c1sc1nc(N3CCOCC3)c3c(c12)CCCC3,-12.4
8,Nc1cccc(NC(=O)c2cccs2)c1,1.7
9,Cc1ccc(S(=O)(=O)/N=C2\C=C(Nc3cccc(C(=O)O)c3)C(=O)c3ccccc32)c(C)c1,27.9
10,CC(=O)O.O=S(=O)(CCc1ccncc1)C1Cc2cccc3cccc1c23 (stereo not shown),-26.9
11,COc1ccc2ccccc2c1CNCc1ccc(C)cc1.O=C(O)C(=O)O,-69.7
12,CC1Cc2cc(/C(O)=C3/C(=O)C(=O)N(Cc4ccncc4)C3c3ccc(N(C)C)cc3)ccc2O1 (stereo not shown),10
13,O=C(Nc1ccccc1Cl)c1c(F)c(F)c(F)c(F)c1F,-0.355
14,COc1ccc(N(CC(=O)Nc2cccc(C(F)(F)F)c2)S(=O)(=O)c2c(C)[nH]c(=O)[nH]c2=O)cc1,3.87
15,Cc1ccc(C(=O)O)cc1NC(=O)c1cccs1,9.1
16,O=C(O)c1cc2n(n1)CCN(Cc1ccccc1Cl)C2=O,8.71
17,CN(Cc1ccc(Cl)cc1Cl)C(=O)CNC(=O)c1ccco1,-19
18,C(=N\N1CCN(c2ccccn2)CC1)/c1ccco1,9.41
19,COc1ccc(NC(=O)C(OC(=O)c2cnc(C)cn2)c2ccccc2)cc1Cl (stereo not shown),-5.92
20,Cc1ccc(-n2ncc3c2CCCC3NC(=O)c2csnn2)cc1C (stereo not shown),-33.2
21,CC(Oc1ccc(Cl)cc1Cl)C(=O)N/N=C1\CCCc2ccccc21 (stereo not shown),-1.49
